Among all 110,000 compounds or so, about 230 (0.21%) showed an effect of 50% or more. This is one part of the list.
The molecules below were run against DPAP1 (Plasmodium falciparum, UniProt Q8IIJ9) (assay: primary screen, percent inhibition; read by cleavage of a fluorogenic dipeptide substrate; higher = more effect of the substance).
Parameters: species or system P. falciparum D10 trophozoite lysates; single well
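Also: 30 min substrate incubation versus DMSO and 10 µM JCP410 controls.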

DPAP1, sequence (Q8IIJ9 whole entry, looked up): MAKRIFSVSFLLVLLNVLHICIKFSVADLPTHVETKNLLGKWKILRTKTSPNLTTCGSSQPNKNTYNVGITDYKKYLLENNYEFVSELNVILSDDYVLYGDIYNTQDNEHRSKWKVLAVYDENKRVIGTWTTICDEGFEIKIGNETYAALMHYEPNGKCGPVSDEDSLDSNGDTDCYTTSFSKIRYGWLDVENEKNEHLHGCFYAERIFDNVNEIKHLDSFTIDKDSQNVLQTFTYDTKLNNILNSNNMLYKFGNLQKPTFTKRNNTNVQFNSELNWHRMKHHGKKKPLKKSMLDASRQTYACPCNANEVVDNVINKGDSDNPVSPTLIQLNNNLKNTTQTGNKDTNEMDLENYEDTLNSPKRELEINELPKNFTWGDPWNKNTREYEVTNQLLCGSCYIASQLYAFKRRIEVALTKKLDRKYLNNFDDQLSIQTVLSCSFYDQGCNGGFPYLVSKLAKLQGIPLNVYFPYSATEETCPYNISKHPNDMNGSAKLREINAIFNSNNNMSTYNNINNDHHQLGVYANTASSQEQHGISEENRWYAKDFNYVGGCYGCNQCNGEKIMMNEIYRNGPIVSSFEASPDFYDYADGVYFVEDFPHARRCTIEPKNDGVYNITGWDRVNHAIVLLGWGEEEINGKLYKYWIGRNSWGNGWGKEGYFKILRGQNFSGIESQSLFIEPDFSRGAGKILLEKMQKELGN

| SMILES | % Inhibition @ 10 uM |
| --- | --- |
| Cc1sc2ncnc(SCC(=O)Nc3ccccc3)c2c1C | 0.605% |
| CN1CCN(c2ccc3nnc(CCC(=O)NCc4ccc5c(c4)OCO5)n3n2)CC1 | -6.16% |
| Cc1cccc(C)c1NC(=O)CSc1nc2c(cc1C#N)CCC2 | 4.28% |
| O=C1/C(=C/c2ccco2)CCC/C1=C\c1ccco1 | 7.5% |
| O=S(=O)(Nc1cccc(NS(=O)(=O)c2ccc(F)cc2)c1)c1ccc(F)cc1 | -4.63% |
| COc1ccc(NS(=O)(=O)c2ccc(NC(=O)c3ccc(C(C)(C)C)cc3)cc2)cc1 | -2.8% |
| Cc1nn(C)c(C(=O)Nc2cccc(Cl)c2C)c1Cl | -3.26% |
| COc1ccc(C(=O)c2ccccc2C)cc1 | 1.13% |
| COc1ccc2c(c1)nc(SCc1ccccc1)n2C | 3.1% |
| CCc1c(CN(C)Cc2ccccc2)csc1C | 2.83% |
| Cc1ccccc1OCC(=O)Nc1ccccc1N1CCOCC1 | -4.02% |
| Cn1nc(C(=O)NCc2ccc(F)cc2)c2c1-c1ccccc1S(=O)(=O)C2 | -7.98% |
| Cc1ccc(-c2ccc(=O)n(CC(=O)NCCN3CCOCC3)n2)cc1 | -1.21% |
| CCOC(=O)c1c(C)oc2c1c(C(c1ccc(OC)cc1)N1CCN(C)CC1)c(O)c1ccccc12 (stereo not drawn) | 0.343% |
| CCOc1ccc(C(=O)c2ccc(OCC)c(N)c2)cc1N | -0.76% |
| COc1ccc(C2C(C#N)=C(N)Oc3[nH]nc(-c4ccccc4)c32)cc1OC (stereo not drawn) | 4.19% |
| Cn1nc(C(=O)N2CCC(N3CCCCC3)CC2)c2c1-c1ccccc1SC2 | 0.00665% |
| COc1ccc(C2C(=O)N(C3CCCCCC3)CC(=O)N2Cc2ccc(F)cc2)cc1 (stereo not drawn) | 1.16% |
| CCN1CC2=C(OC(N)=C(C#N)C2c2ccccc2C)/C(=C/c2ccccc2C)C1 (stereo not drawn) | 4.61% |
| CN(C(=O)c1cccc([N+](=O)[O-])c1)c1ccccc1 | 7.04% |
| COc1cc(OC)c(CNC2CCCC2)cc1Br | -0.582% |
| Brc1ccc(-c2cn3c4ccccc4n(CCN4CCCCC4)c3n2)cc1 | 0.345% |
| O=C(NCCc1ccccc1)C(=O)Nc1ccc(Cl)c(Cl)c1 | -7.87% |
| Clc1cccc(NCn2cnc3ccccc32)c1 | 8.06% |
| CCCn1c2ccccc2c2cc(OC)ccc21 | -5.03% |
| CCn1c(C)c(C)c2cc(C(=O)NCCN3CCOCC3)ccc21 | -5.28% |

| SMILES | % Inhibition @ 10 uM |
| --- | --- |
| CCC(C)(C)/N=c1/c(-c2ccc(C)c(C)c2)c(O)c1=O | -1.98% |
| CCCN(CCC)CCNC(=O)CNC(=S)N1CC2CC(C1)c1cccc(=O)n1C2 (stereo not drawn) | 2.79% |
| CCOc1cc(/C=C2\SC(=O)N(CC)C2=O)cc(Br)c1O | -7.1% |
| CCc1ccccc1OCCSc1nc(-c2ccc(OC)cc2)nc2cc(=O)[nH]n12 | 4.13% |
| COC(=O)c1ccc(CN2CCc3ccccc3C2)cc1 | 3.48% |
| COc1ccc(CNC(=O)CCS(=O)(=O)c2ccc3nc(C)sc3c2)cc1 | -1.97% |
| COc1ccc(Cn2c(-c3nonc3NC(C)=O)nc3ccccc32)cc1 | 5.2% |
| CCC(=O)N1N=C2C3CCN(CC3)C2C1c1ccc(OC)cc1 (stereo not drawn) | -4.24% |
| CCOC(=O)/C(C#N)=C/c1c(Oc2ccc(C)cc2)nc2ccccn2c1=O | -1.86% |
| N=C1/C(=C\c2ccc(Cl)cc2)C(=O)N=C2SC(N3CCCC3)=NN12 | -7.18% |
| COc1ccc(C2/C(=C(\O)OC3CCCCC3)C(C)=Nc3nnnn32)cc1Br (stereo not drawn) | -0.326% |
| Clc1ccc(OCc2nnc(-c3ccccc3)o2)cc1 | 5.29% |
| COc1ccc(C(=O)C2=C(O)C(=O)N(CCN3CCOCC3)C2c2cccs2)cc1OC (stereo not drawn) | -0.62% |
| O=C1CC(N2CCN(Cc3ccc4c(c3)OCO4)CC2)C(=O)N1c1cccc2ccccc12 (stereo not drawn) | -1.17% |
| Brc1cc2c(cc1Cn1c(-c3cncs3)nc3ccccc31)OCO2 | 1.51% |
| CCOc1cc(C2CC(=O)NC3=C2C(=O)CC(C)(C)C3)ccc1OC(C)C (stereo not drawn) | -3.51% |
| CC(=O)C(C(C)=O)=C(N)N1CCN(c2ccc(F)cc2)CC1 | -3.9% |
| Nc1nncn1C(=O)c1ccc2c(c1)OCO2 | -5.85% |
| Cc1cc(C)c2c(=O)c3c(oc2c1)C(=O)N(CCCOC(C)C)C3c1ccc(Cl)cc1 (stereo not drawn) | 4.83% |
| CCOC(=O)c1c(NC(=O)Cn2nnc3sc4c(c3c2=O)CCC(C)C4)sc2c1CCCC2 (stereo not drawn) | 0.561% |
| Cc1c(C)n(Cc2ccccc2)c2ccc(C(=O)N3CCSCC3)cc12 | 0.431% |
| CC(C)c1ccc(OCC(=O)Nc2nccs2)cc1 | 8.26% |
| CCOc1ccc(C2C3=C(O)CC(C)(C)CC3=NC3=C2C(=O)CC(C)(C)C3)cc1OCC (stereo not drawn) | -2.56% |
| COc1ccc2c(c1)c1c(c(=O)n(CCc3ccccc3)c(=O)n1CC(=O)NCC1CCCO1)n2C (stereo not drawn) | -0.401% |
| O=C(Nc1cccc2ccccc12)C(=O)NC1CCCCC1 | -8.01% |
